The values below come from PubChem BioAssay AID463173 (ICCB-Longwood Screening Facility, Harvard Medical School, 2010).

The whole screen tested about 52,000 compounds, of which about 1,700 (3.3%) were called active. No stated cut-off is given here; in the data, active means survival mostly below about 52% (no sharp cut-off); inactive means mostly above about 56%. The list shows a part of the results.

This assay concerns Wild type. The experiment in a line: S. aureus survival, RN4220 and DeltatarO strains – OD600, teichoic acid synthesis inhibitors, primary screen (AID 463173). The conditions noted are these: S. aureus RN4220 wild type/DeltatarO growth, OD600, 18 h, hits give low values, screened at 18.75 µg/mL (by protocol).
As for `Cc1oc2ncn(CC(C)C)c(=O)c2c1C(=O)NCCCN(Cc1ccccc1)C(C)C`, the survival was inactive: 128%.
`CCOc1ccc(NC(=O)CSc2nnc(-c3ccc(C)cc3)c(-c3ccc(C)cc3)n2)cc1`: the survival was inactive: 115%.
`O=C(NC1CC(=O)N(c2ccc(Cl)cc2)C1)c1ccc(S(=O)(=O)N2CCCC2)cc1` (stereo not given): the survival is inactive: 127%.
Regarding `COc1ccc(-n2c(SCc3ccccc3F)nc3c([nH]c4ccccc43)c2=O)cc1`, the survival was inactive: 79%.
Then `CCOc1ccc(NC(=O)c2ccc(F)c(S(=O)(=O)NCc3ccc4c(c3)OCO4)c2)cc1`, with inactive: 55%; and `CC(=O)Nc1ccc(S(=O)(=O)Nc2ccc3c(c2)OC(C)(C)O3)cc1`, with inactive: 104%; and `CCOc1ccccc1NS(=O)(=O)c1cnc(N)nc1`, with active: -3%.
In the case of `Cc1ccccc1N1CCN(S(=O)(=O)c2nnc(NC(=O)c3ccc(Cl)cc3)s2)CC1`, the survival was inactive: 80%.
As to `COc1ccc(CCNC(=O)C(=O)NCC(c2ccco2)S(=O)(=O)c2ccccc2)cc1OC` (stereo not given), the survival was inactive: 53%.
For `COc1ccc(CCNC(=O)CS(=O)Cc2nc(-c3ccc(C)cc3)oc2C)c(OC)c1` (stereo not given), the survival was inactive: 77%.
For the compound `O=C(Cn1c(=O)nc(-c2ccccc2)c2ccccc21)NCCCc1ccccc1`, the survival was inactive: 60%.
In the case of `CCc1cccc(C)c1NC(=O)CSc1nnc(N)s1`, the survival was inactive: 72%.
On to `CCc1cccc(NCc2ccccc2-c2nnc(-c3ccccc3Cl)o2)c1`, for which the survival was inactive: 81%.
In the case of `COc1ccc(N2CCN(C(=O)CN(c3cccc(C(F)(F)F)c3)S(C)(=O)=O)CC2)cc1` it was inactive: 110%.
Take `CCCC12CN3CC(C)(CN(C1)C3c1cn(C)c3ccccc13)C2=O` (stereo not given): the survival was inactive: 103%.
Take `CCn1c(CN2CCOCC2)nc2cc(NC(=O)c3cc(OC)c(OC)c(OC)c3)ccc21`: the survival was inactive: 83%.
Then `CSc1nn(Cc2ccc(Br)cc2)c(N(C(C)=O)C(C)=O)c1S(=O)(=O)c1ccccc1`, with inactive: 45%; and `CC(=O)c1ccc(NC(=O)C2CCC(CNS(=O)(=O)c3ccc4c(c3)CCCC(=O)N4)CC2)cc1` (stereo not given), with inactive: 45%; and `COc1ccc(-c2cc(C(=O)NCc3ccccc3)c3c(-c4ccccc4)[nH]nc3n2)cc1`, with inactive: 78%.
Then `CC1CCN(C(=O)Cn2ncc3c4ccccc4n(Cc4ccc(Cl)cc4)c3c2=O)CC1`, with inactive: 95%.
As to `COc1ccccc1N1CCN(C(=O)Cc2c(C(=O)O)c(C)cn2C)CC1`, the survival is active: -6%.
Then `CC(=O)c1ccc(NC(=O)c2cc(-c3ccc(Cl)c(Cl)c3)on2)cc1`, with inactive: 78%.
For `CCc1ccccc1NC(=O)C1CCCN(c2nnc(-n3c(C)ccc3C)s2)C1` (stereo not given), the survival is inactive: 75%.
As for `CCCCSCCCNC(=O)C1CCC(CNS(=O)(=O)c2ccccc2)CC1` (stereo not given), the survival is inactive: 80%.
Regarding `CCOc1ccc(CCNC(=O)c2ccc3nc(CC)c(CC)nc3c2)cc1`, the survival was inactive: 77%.
For `O=C(Nc1ccc(F)cc1F)c1ccc2c(=O)n3c(nc2c1)CCCCC3`, the survival was inactive: 75%.
On to `COc1ccccc1-c1cc(C(=O)Nc2cc(Cl)ccc2O)no1`, for which the survival was inactive: 84%.
In the case of `CCOc1ccc(CNC(=O)c2cnc3sc(N4CCC(C)CC4)nn3c2=O)cc1OC` it was inactive: 91%.
Then `CCOc1ccc(OCC(=O)Nc2c(C(=O)Nc3ccc(C)cc3)oc3ccccc23)cc1`, with inactive: 93%.
Consider `Cc1c(C(=O)N(C)c2cccc(C(F)(F)F)c2)sc2nc3n(c(=O)c12)CCCCC3`, for which the survival was inactive: 98%.
Take `Fc1ccc(CNc2nc3ccc(Cl)cc3n3nnnc23)cc1`: the survival was inactive: 99%.
As to `COc1cccc(-n2c(=O)c3sc4ccccc4c3n(CC(=O)Nc3cccc(Cl)c3)c2=O)c1`, the survival is inactive: 78%.
Then `COC(=O)C1=C(C)NC2=C(C(=O)CC(c3ccco3)C2)C1c1cccc(OC)c1` (stereo not given), with inactive: 98%; and `O=S(=O)(Nc1cccc(-c2ccc(N3CCCCC3)nn2)c1)c1ccc(Cl)s1`, with inactive: 82%; and `CCCC(=O)N(Cc1nc2ccccc2c(=O)[nH]1)C1CCCC1`, with inactive: 85%.
Take `CCSc1ncc(Cl)c(C(=O)N2CCN(c3ccc(OC)cc3)CC2)n1`: the survival was inactive: 89%.
Consider `C=Cc1ccc(Cn2c(=O)n(-c3cccc(C)c3)c(=O)c3c2c2cc(C)ccc2n3C)cc1`, for which the survival is inactive: 136%.
In the case of `O=S(=O)(c1cccc(Cl)c1)c1nnn2c1nc(NC1CCCCCC1)c1sccc12`, the survival was inactive: 120%.
For `CCN(CC)CCCNC(=O)c1ccc2nc(CCc3ccccc3)oc2c1`, the survival is inactive: 83%.
For `O=C(Nc1ccc2c(c1)N(C1CCCC1)C(=O)c1ccccc1S2)c1ccc(F)cc1`, the survival is inactive: 87%.
Take `CCN(CC)c1ccc(NC(=O)C2COc3ccc(OC)cc3C2)c(C)c1` (stereo not given): the survival is inactive: 131%.
On to `Cc1ccc(S(=O)(=O)c2c(C)nn(-c3ccccc3)c2OC(=O)c2ccccc2F)cc1`, for which the survival is inactive: 51%.
In the case of `Cc1cc(C(=O)Nc2cccc(OC(C)C)c2)c(C)o1` it was inactive: 110%.
As to `CCN(c1ccc(Cl)cc1)S(=O)(=O)c1nnc(NC(=O)C(C)C)s1`, the survival is inactive: 88%.
`COc1ccc(Nc2nc(NCCO)c3ccccc3n2)c(OC)c1`: the survival was inactive: 111%.
In the case of `CCC(=O)Oc1ccc(-c2nc3ccccc3c(=O)o2)cc1`, the survival was inactive: 73%.
`CCOC(=O)c1ccccc1NC(=O)Cn1c(=O)n(Cc2ccccc2)c(=O)c2c(C)c(C)sc21`: the survival is inactive: 90%.
On to `CC(C)(C)OC(=O)N1CCC(c2c(C(=O)NCc3ccco3)cnn2-c2ccc(F)cc2)CC1`, for which the survival was inactive: 85%.
As to `Cc1ccc(-n2ncc(C(=O)N3CCN(Cc4ccccc4)CC3)c2C2CCN(C(=O)OC(C)(C)C)CC2)c(C)c1`, the survival was inactive: 47%.
As for `Cc1ccc(C)c(S(=O)(=O)c2nnn3c2nc(NCc2ccc4c(c2)OCO4)c2sccc23)c1`, the survival is inactive: 78%.
Take `CN(C)c1ccc(NC(=O)Cn2c(SCc3ccccc3F)nc3cccnc32)cc1`: the survival is inactive: 135%.
In the case of `CN(C)c1ccc(C(CNS(=O)(=O)c2ccc(Br)cc2)N2CCOCC2)cc1` (stereo not given) it was inactive: 88%; in that of `O=c1c2sc3ccccc3c2n(Cc2ccccc2F)c(=O)n1CCc1ccccc1`, inactive: 86%; in that of `COc1ccc(-c2nnc(SCC(=O)Nc3ccc(F)cc3)s2)cc1`, inactive: 84%.
In the case of `CCc1ccc(-c2ccc(C(=O)Oc3ccc(Br)cc3)cc2)nc1` it was inactive: 76%; in that of `CCOC(=O)c1cnc(SCC(=O)OC)nc1N`, inactive: 95%; in that of `O=C(c1ccc2c(Cl)c3c(nc2c1)CCCC3)N1CCN(c2cccc(Cl)c2)CC1`, inactive: 62%.
Turning to `Cc1cccc(N2C(=O)CCSC23C(=O)N(Cc2ccc(F)cc2)c2ccccc23)c1` (stereo not given), the survival is inactive: 125%.
With `Cc1ccc(-c2c(C(=O)NCCc3ccc(Cl)cc3)oc(=O)c3ccccc23)cc1`, the survival is inactive: 57%.
Consider `Cc1ccc(N2CNC(=O)c3c(C)cc(C)nc32)cc1`, for which the survival is inactive: 113%.
Then `O=C(CSc1ncn(-c2ccccc2)n1)NC1CCCCC1`, with inactive: 102%; and `Cc1c(C)n(C)c2ccc(C(=O)NCCCN3CCCCC3)cc12`, with inactive: 97%.
`COc1ccc(NC(=O)C2=C(C)Nc3nc(SCc4ccccc4)nn3C2c2cc(OC)ccc2OC)cc1` (stereo not given): the survival was inactive: 70%.
On to `O=C1C=CC(=O)N1c1ccc(N2CCCCC2)cc1`, for which the survival was inactive: 88%.
On to `Cc1ccc(Cn2ccc(NC(=O)c3cc(-c4ccc(Cl)c(Cl)c4)on3)n2)cc1`, for which the survival is inactive: 74%.
Regarding `COCCc1nn2c(=O)cc(COC(=O)c3ccc(C(C)(C)C)cc3)nc2s1`, the survival is inactive: 124%.
Turning to `O=[N+]1C2=C(CCCC2)N([O-])C12CCCC2`, the survival was inactive: 104%.
In the case of `CCN(c1ccccc1)S(=O)(=O)c1ccc(Cl)cc1` it was inactive: 121%; in that of `Cc1c(-c2cccc(NC(=O)C(C)(C)C)c2)nc2ncccn12`, inactive: 71%.
With `Cc1ccc(-c2nc(SCc3ccc(Br)cc3)n3[nH]c(=O)cc3n2)cc1`, the survival was active: 10%.
With `CN1CC(=O)N(CC(=O)Nc2ccc(Cl)c(C(F)(F)F)c2)c2ccccc2C1=O`, the survival is inactive: 100%.
Then `CCN(CC)S(=O)(=O)c1ccc(C(=O)N=c2sc3cccc(OC)c3n2C)cc1`, with inactive: 90%; and `COc1ccc(CNc2ncnc3c2c(-c2ccccc2)cn3-c2ccccc2)cc1`, with inactive: 84%; and `CCc1c(SCC(=O)O)nc2ccccc2c1C`, with inactive: 111%.
In the case of `Cc1ccc(S(=O)(=O)c2nc(-c3ccc(Cl)cc3)oc2N2CCCCCC2)cc1`, the survival is inactive: 30%.
Regarding `CCCn1c(SCC(=O)Nc2ccccc2C(F)(F)F)nnc1-c1ccoc1C`, the survival was inactive: 101%.
On to `Cc1ccc2nc(N3CCN(c4cccc(C)c4C)CC3)c3nnnn3c2c1`, for which the survival was inactive: 82%.
For `N#Cc1c(N)oc(-c2ccc3c(c2)OCO3)c1-c1ccc2c(c1)OCO2`, the survival was inactive: 66%.
Consider `COc1ccccc1CNC(=O)c1cccc(Nc2nc3ccccc3n3nnnc23)c1`, for which the survival is inactive: 85%.
In the case of `COc1ccc(Cn2nnnc2C(c2ccccc2F)N(Cc2ccco2)CC2CCCO2)cc1` (stereo not given), the survival was inactive: 130%.
On to `CCC1CN(C(=O)N2CCC(C(=O)NCc3cccs3)CC2)c2cc(C)ccc2O1` (stereo not given), for which the survival is inactive: 86%.
As to `Cc1ccccc1Nc1c2c(nc3nncn13)CCC2`, the survival was inactive: 82%.
`O=C(O)/C=C\C(=O)Nc1ccc2cn[nH]c2c1`: the survival is inactive: 103%.
`O=C(COc1ccc(F)cc1)Nc1ccc2nc(SCc3ccccc3)sc2c1`: the survival was inactive: 84%.
With `CCc1cccc(NC(=O)CSc2ncc3c(n2)-c2ccccc2N(Cc2ccccc2C)S3(=O)=O)c1`, the survival is active: 0%.
Regarding `O=C(CC1(O)C(=O)N(CCc2ccccc2)c2ccc(Br)cc21)c1ccccc1O` (stereo not given), the survival is active: 6%.
Take `CCOc1ccc(-c2cc(C(=O)NCc3ccccc3)c3c(-c4ccc(CC)cc4)[nH]nc3n2)cc1`: the survival is inactive: 60%.
In the case of `CC(C)(C)C(=O)Nc1c(C(=O)N2CCN(c3ccc(F)cc3)CC2)oc2ccccc12` it was inactive: 73%; in that of `COc1ccc(NC(=O)Cc2csc(C)n2)cc1`, inactive: 83%.
`CC(=O)c1ccc(NC(=O)NCCc2c[nH]c3ccccc23)cc1`: the survival was inactive: 101%.
